From PubChem BioAssay AID488969 (Vanderbilt High Throughput Screening Facility, 2010)
Over roughly 110,000 compounds, “z-score” has its median near -0.1; the highest 2% begin near 2. Some of the results follow.

target: Metabotropic glutamate receptor 8 (Rattus norvegicus) (UniProt P70579); experiment: mGluR8 Gi/Go-coupled signaling modulation – cell-based, rat, thallium flux, HTS, primary screen (AID 488969); conditions: HEK293 rat mGluR8, GIRK (G protein-gated inwardly rectifying potassium channel) thallium flux, FluoZin2; at 10 µM; stronger effect = higher value; submaximal glutamate (EC20) added with thallium
UniProt P70579, sequence (P70579 whole entry, looked up): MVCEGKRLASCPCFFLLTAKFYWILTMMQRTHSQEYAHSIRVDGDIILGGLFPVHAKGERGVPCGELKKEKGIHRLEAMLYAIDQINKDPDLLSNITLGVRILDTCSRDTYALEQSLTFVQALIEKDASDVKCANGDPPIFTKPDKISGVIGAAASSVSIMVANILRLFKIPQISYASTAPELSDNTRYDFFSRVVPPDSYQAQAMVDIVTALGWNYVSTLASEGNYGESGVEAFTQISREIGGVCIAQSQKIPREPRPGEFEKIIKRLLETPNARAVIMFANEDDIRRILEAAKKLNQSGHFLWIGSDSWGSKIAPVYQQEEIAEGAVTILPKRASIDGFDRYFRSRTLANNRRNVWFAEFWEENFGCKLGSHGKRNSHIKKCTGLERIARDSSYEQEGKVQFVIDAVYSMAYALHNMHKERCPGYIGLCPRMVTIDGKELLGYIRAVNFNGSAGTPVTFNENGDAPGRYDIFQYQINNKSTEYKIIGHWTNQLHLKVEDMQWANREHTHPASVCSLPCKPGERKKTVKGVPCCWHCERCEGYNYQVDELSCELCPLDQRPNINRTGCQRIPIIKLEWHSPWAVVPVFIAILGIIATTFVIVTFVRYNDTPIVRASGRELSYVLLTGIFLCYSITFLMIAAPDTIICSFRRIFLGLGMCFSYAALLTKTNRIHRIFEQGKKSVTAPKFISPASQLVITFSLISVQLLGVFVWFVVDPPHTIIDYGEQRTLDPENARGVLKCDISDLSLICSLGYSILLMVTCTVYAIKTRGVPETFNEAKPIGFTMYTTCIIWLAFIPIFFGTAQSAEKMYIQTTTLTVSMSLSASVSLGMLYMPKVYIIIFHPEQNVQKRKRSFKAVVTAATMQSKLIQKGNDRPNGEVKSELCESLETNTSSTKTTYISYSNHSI

Going from `COc1cc(OC)cc(N(C(=O)C2COc3ccccc3O2)C(C(=O)NC2CCCCC2)c2ccc(O)cc2)c1` (stereo not given) to `O=C(Nc1ccccc1C(=O)NC(Cc1ccccc1)C(=O)NC1CCCCC1)c1ccccc1` (stereo not given), the z-score rises from -0.751 to -0.052.

Going from `CCOC(=O)CNC(=O)CSc1nnc(-c2ccco2)n1N` to `CCn1c(Cc2ccccc2)nnc1SCC(=O)Nc1nccs1`, the z-score falls from 0.607 to -0.168.

First: Cc1ccccc1NN1C(=O)C=CC1=O
Second: COC(=O)c1ccccc1SC1CC(=O)N(c2cccc(C)c2)C1=O (stereo not given)
The z-score of the first is higher: -0.05 for the first, -0.105 for the second.

Compared with `O=C(COc1ccc(Cl)cc1)N1CCN(c2cccc(C(F)(F)F)c2)CC1`, `c1ccc(N2CCN(Cc3ccnc4ccccc34)CC2)cc1` is higher in z-score: -0.457 for the first, 0.134 for the second.

First: CCOC(=O)C1=C(C)NC2=C(C(=O)CC(C)(C)C2)C1c1ccsc1 (stereo not given)
Second: COc1cc(C(=O)NNC2=CC(=O)CC(C)(C)C2)cc(OC)c1OC
The z-score of the first is lower: -0.225 for the first, -0.21 for the second.

First: CCn1c(C)c(C(C)=O)c(NCc2ccccc2)nc1=S
Second: CCCc1nc2oc(C(=O)c3ccccc3)c(N)c2c2c1COC(C)(C)C2
The z-score of the first is higher: 0.38 for the first, -1.12 for the second.

Going from `O=C(CSc1ncnc2ccccc12)c1ccc2c(c1)OCCO2` to `CCOC(=O)CSc1nc(Nc2ccc3c(c2)OCO3)c2ccccc2n1`, the z-score falls from -0.224 to -0.557.

Compared with `CNC(=O)c1cc2c(=O)n3cc(C)ccc3nc2n(C(C)C)c1=N`, `Cc1ccc(CSc2nc3sc(C)c(C)c3c(=O)n2Cc2ccco2)cc1` is higher in z-score: -0.994 for the first, 0.876 for the second.

Going from `Cc1ccc(CC(=O)OCCNC(=O)c2cccnc2)cc1` to `Cc1cccc(NC(=O)C(=O)NCc2ccccn2)c1`, the z-score rises from 0.0795 to 0.329.

First: CC(=O)N/C(=C/c1ccc2c(c1)OCO2)C(=O)Nc1ccccc1
Second: Cn1c(NC(=O)c2cccs2)c(-c2cccs2)c(=O)c2ccccc21
The z-score of the first is lower: 0.158 for the first, 0.899 for the second.

Going from `O=C(Cn1cc(C(F)(F)F)ccc1=O)Nc1cc(S(=O)(=O)N2CCOCC2)ccc1Cl` to `CCCCOc1ccc(C(=O)Nc2cc(C)c(OCC(=O)N3CCOCC3)c(C)c2)cc1`, the z-score falls from -0.11 to -0.259.

Compared with `CON(c1nc(Cl)nc(N(C)C)n1)S(=O)(=O)c1ccccc1Cl`, `COc1ccc(-c2nc(SCc3ccccc3)n(S(C)(=O)=O)n2)cc1` is lower in z-score: 2.79 for the first, 0.0796 for the second.

First: Cc1ccc(N2CC(C(=O)NC3=NCCS3)CC2=O)cc1C (stereo not given)
Second: COc1ccc(CN2C(=O)CS(=O)CC2=O)cc1OC
The z-score of the first is higher: -0.023 for the first, -0.18 for the second.

Compared with `C=CCNC(=O)c1sc(SC)cc1-c1ccc(Cl)cc1`, `CCc1ccc(NC(=O)c2cc(C)on2)cc1` is higher in z-score: -2.38 for the first, -0.546 for the second.

Going from `NC(=O)C1(N2CCCCC2)CCN(C(=S)Nc2ccc(F)cc2)CC1` to `COc1ccccc1N1CCN(C(=O)c2cc3c(s2)CCC3)CC1`, the z-score falls from -0.0913 to -1.5.

Compared with `COc1ccc(/C=N/c2nc3ccccc3n2CCN2CCCCC2)cc1OC`, `COc1ccc(CNC(=O)COC(=O)c2cc(-c3cccs3)nc3ccccc23)cc1OC` is higher in z-score: -0.42 for the first, 0.337 for the second.

Compared with `Cc1ccc(C23CC4CC(CC(NC(=O)NC(C)(C)CO)(C4)C2)C3)cc1`, `COc1ccccc1N1CCN(C(=O)C2CC=CCC2C(=O)O)CC1` (stereo not given) is lower in z-score: 0.0693 for the first, 0.0423 for the second.

Going from `CCC(CC)NC(=O)Cc1ccccc1OC` to `CCN1CNC(=S)N(c2ccccc2OC)C1`, the z-score falls from -0.0578 to -0.242.

First: Cc1cc(C)c2c(n1)nn1c(N3CCOCC3)cc(C)nc21
Second: CN1Cc2c(N3CCOCC3)nc(SCc3ccccc3)c(C#N)c2CC1(C)C
The z-score of the first is higher: 0.0779 for the first, -0.497 for the second.

Going from `CSc1nnc(-c2sc3cc(C(F)(F)F)cnc3c2-c2ccccn2)n1C` to `COc1ccc(-c2csc(Nc3ncccc3C)n2)cc1`, the z-score falls from 0.0151 to -0.14.

Compared with `COc1ccc(C2NC(=O)c3n[nH]c(C)c32)c(OC)c1` (stereo not given), `COc1ccc(OC)c(N(CC(=O)NCc2ccncc2)S(C)(=O)=O)c1` is lower in z-score: 0.447 for the first, -0.35 for the second.

Compared with `c1ccc(COn2nnc3ccccc32)c(COn2nnc3ccccc32)c1`, `c1ccc2c(c1)OCC(c1nn3c(Cn4nnc5ccccc54)nnc3s1)O2` (stereo not given) is higher in z-score: -0.435 for the first, -0.154 for the second.

First: COc1ccccc1NC(=O)COc1ccc(/C=N/NS(=O)(=O)c2ccc(C)cc2)cc1
Second: COc1cc(CNCCc2ccccc2)ccc1OCc1ccc(Cl)nc1
The z-score of the first is lower: -0.382 for the first, 0.743 for the second.

Compared with `COc1ccc(C(=O)NC(CC(C)C)C(=O)O)cc1OC` (stereo not given), `COc1cccc(C(=O)NCC(=O)N2CCC(C)CC2)c1` is lower in z-score: -0.471 for the first, -0.917 for the second.

Going from `CC1(C)OC(=O)C(=C2CCCN2)C(=O)O1` to `CC(C(=O)NC1CCCC1)N(Cc1ccc2c(c1)OCO2)C(=O)c1snc(C(N)=O)c1N` (stereo not given), the z-score rises from -0.743 to -0.536.

Going from `Cn1c2ccc(F)cc2c2ncn(CCCN(CCO)CCO)c(=O)c21` to `Cc1nc2ccccc2n1CCCOc1ccccc1`, the z-score falls from 1.33 to 0.465.

Going from `O=C(CN1CCN(Cc2ccccc2Cl)CC1)N/N=C/C=C\c1ccccc1[N+](=O)[O-]` to `N#Cc1ccccc1/C=N/Nc1nc(-c2ccccc2)c2cc(Br)ccc2n1`, the z-score falls from -0.0165 to -0.0457.

For `CC(C)(C)OC(=O)N1CCC(C(=O)N2CCOCC2)CC1`, the z-score was -0.0984.
